Hit rate of the full screen: of about 43,000 compounds, about 830 (1.9%) were called active. Inconclusive results, whose numbers are uncertain, are shown with a selection of clear calls. Rule for the calls: active = clear falling dose curves in both reporters; inconclusive = both reporters move, but less clearly or upward; inactive = either reporter flat; the % is the NLuc reporter signal. No potency is given beside an inconclusive call; the fits are too rough.
Assay: Cell-based coincidence reporter assay to measure PMP22 gene transcription in S16 Pmp22-F2sN cells - Primary screen
Conditions: S16 Pmp22-F2sN Schwann cells (luciferase reporters placed in the Pmp22 gene), FLuc/NLuc coincidence luminescence, 24 h; measured here: NLuc reporter readout, at 57.5 µM (top of the series); activity change, negative = inhibition: at the top concentration
Summary of the method: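 Schwann cells carrying the coincidence reporter were exposed to library compounds for 24 h at 37C, then lysed and read for FLuc and, after quenching, NLuc luminescence on a CCD imager.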
% is set by controls: 0 for no effect and ±100 for the full control effect; potency is the fitted concentration of half-maximal effect; tags give direction and shape of the fitted curve.

Compound | activity change, negative = inhibition | Potency
COc1ccc(-n2nc3c(N4CCC(C(=O)NCCc5ccccc5)CC4)nnc(C)c3c2C)cc1 | inactive: 6.14% | 
O=C(CSc1nnc(-c2cccc(F)c2)c(-c2cccc(F)c2)n1)NC1CCCCC1 |  | inconclusive [phenotype inactive, single point]
CCOC(=O)c1c(C)c(-c2ccccc2)n(CC(=O)Nc2cc(C)cc(C)c2)c1C |  | inconclusive [phenotype inactive, single point]
COc1ccccc1CNC(=O)CCC1N=C2c3ccccc3N=C(SCc3ccc(Cl)cc3)N2C1=O (stereo not drawn) |  | inconclusive [phenotype inactive, single point]
COc1ccc(CCN2C(=O)c3[nH]nc(-c4ccccc4O)c3C2c2ccccc2)cc1 (stereo not drawn) |  | inconclusive [phenotype inactive, single point]
Cc1cc(NC(=O)Cn2c(=O)oc3cc(S(=O)(=O)N4CCCC4)ccc32)ccc1Br |  | inconclusive [phenotype inactive, single point]
CCOc1ccc2c(c1)c(=O)c(S(=O)(=O)c1ccc(Cl)cc1)cn2Cc1ccccc1C | inactive: -8.2% | 
Cc1ccc(C)c(N2CCN(c3nc4ccccc4c(=O)n3-c3ccccc3)CC2)c1 |  | inconclusive [phenotype inactive, single point]
Cc1ccc(CSc2oc(-c3cccs3)nc2S(=O)(=O)c2ccc(C)cc2)cc1 | inactive: 8.14% | 
COc1ccc(-c2nc(SCC(=O)Nc3ccc4c(c3)OCCO4)c(-c3ccccc3)[nH]2)cc1 |  | inconclusive [phenotype inactive, single point]
CCSc1nn(CC(=O)Nc2cccc(Cl)c2)c(N)c1S(=O)(=O)c1ccc(OC)cc1 |  | inconclusive [phenotype inactive, single point]
CCOC(=O)c1c(C)n(-c2ccccc2)c2ccc(OC(=O)c3ccccc3NC(=O)C(C)(C)C)cc12 |  | inconclusive [phenotype inactive, single point]
COc1ccc(C2=NC(C)(C)N(CC(=O)Nc3ccc(F)c(F)c3)C2=O)cc1 |  | inconclusive [phenotype inactive, single point]
Cc1ccc(N(Cc2cccs2)C(=O)COc2cccc(C)c2)cc1 |  | inconclusive [phenotype inactive, single point]
CCCCNC(=O)c1cnn2c(C)c(Cc3c(F)cccc3Cl)c(C)nc12 |  | inconclusive [phenotype inactive, single point]
O=C(NCCSc1c(-c2ccccc2)[nH]c2ccccc12)c1ccc(S(=O)(=O)N2CCOCC2)cc1 |  | active: 9.46 µM
Cc1cccc2nc(-c3cccnc3)c(Nc3ccc(C(C)C)cc3)n12 |  | inconclusive [phenotype inactive, single point]
CCOC(=O)c1c(C)oc2ccc(N(C(=O)Oc3ccccc3)S(=O)(=O)c3ccccc3)cc12 |  | inconclusive [phenotype inactive, partial curve]
CCC(Sc1nnc(C)n2c1cc1occc12)C(=O)Nc1ccccc1F (stereo not drawn) |  | inconclusive [phenotype inactive, single point]
CCN(CC)c1ccc(NC(=O)C(Cc2ccccc2)NS(=O)(=O)c2ccc(Br)s2)c(C)c1 (stereo not drawn) | inactive: -24.9% | 

Compound | activity change, negative = inhibition | Potency
Cc1cccc(N2CCN(S(=O)(=O)c3ccc4c(c3)CCCN4C(=O)C3CCC3)CC2)c1C |  | active: 16 µM
COc1ccccc1N1CCN(S(=O)(=O)c2c(C)sc3ncn(CC(=O)N(C)c4ccc(C(C)C)cc4)c(=O)c23)CC1 |  | inconclusive [phenotype inactive, single point]
Cc1ccc(Cl)cc1NC(=O)N1CCN(C)c2ncccc21 |  | inconclusive [phenotype inactive, partial curve, poor fit]
O=c1cc(CN2CCN(S(=O)(=O)c3ccc(Cl)cc3)CC2)nc2sc(-c3ccccc3F)nn12 |  | inconclusive [phenotype inactive, single point]
COc1cccc(OC(=O)CSc2nnc(-c3ccccc3OC)o2)c1 | inactive: -29.2% | 
Cc1ccc2c(c1)cc(C(=O)Nc1ccccc1C)n2C |  | inconclusive [phenotype inactive, partial curve]
CCc1nn2c(=O)cc(COC(=O)c3ccccc3NC(=O)COc3ccccc3C)nc2s1 | inactive: -28.7% | 
O=C(c1ccco1)N(Cc1cccnc1)c1nc2ccc(F)cc2s1 | inactive: -55.2% | 
CCOc1cc(C2C(C(=O)OC)=C(C)NC3=C2C(=O)c2ccccc23)ccc1O (stereo not drawn) |  | inconclusive [phenotype inactive, single point]
COc1ccc(-n2nc3ccc(NC(=O)c4cc5ccccc5o4)cc3n2)cc1Cl |  | inconclusive [phenotype inactive, single point]
CCCOc1ccc(C(=O)Nc2cccc(-c3nc4ccccc4[nH]3)c2)cc1 |  | inconclusive [phenotype inactive, single point]
Cc1cccc(C)c1OCC(=O)NCC1(N2CCOCC2)CCCCC1 |  | inconclusive [phenotype inactive, partial curve, poor fit]
Cc1ccc(NC(=O)Cn2c(=O)n(Cc3ccccc3)c(=O)c3c(C)c(C)sc32)c(C)c1 |  | inconclusive [phenotype inactive, single point]
CCOC(=O)c1ccc(OCC2c3cc(OC)c(OC)cc3CCN2C(=O)Cc2ccc(F)cc2)cc1 (stereo not drawn) |  | inconclusive [phenotype inactive, single point]
COc1ccc(CN(CCC(c2ccc3c(c2)OCO3)c2ccccc2OC)C(C)=O)cc1 (stereo not drawn) |  | inconclusive [phenotype inactive, single point]
CN1C(=O)c2ccccc2Sc2ccc(NC(=O)Nc3ccccc3F)cc21 |  | inconclusive [phenotype inactive, single point]
Cc1cccc(C)c1Nc1c(-c2ccsc2)nc2ccccn12 |  | active: 9.46 µM
CCOC(=O)N1CCC(NC(=O)c2ccc3c(c2)N(Cc2ccc(F)cc2)C(=O)c2ccccc2S3=O)CC1 (stereo not drawn) |  | inconclusive [phenotype inactive, single point]
Cc1ccccc1OCC(=O)Nc1ccc2[nH]c(=O)sc2c1 |  | inconclusive [phenotype inactive, partial curve]
Cc1ccc(C)c(NC(=O)CSc2nnc(NC(=O)Nc3ccccc3)s2)c1 |  | inconclusive [phenotype inactive, single point]

Compound | activity change, negative = inhibition | Potency
CC(C)(C)C(=O)Cn1c(=O)n(CCCCCC(=O)NCc2ccccc2Cl)c(=O)c2sccc21 |  | inconclusive [phenotype inactive, single point]
CCC(=O)Nc1ccc(C)cc1-c1nc2ccccc2n(CC(=O)c2ccc(C)cc2)c1=O |  | inconclusive [phenotype inactive, single point]
COc1ccc(Cl)cc1NC(=O)C(C)n1c(=O)cc(C(F)(F)F)c2c(C)nn(C)c21 (stereo not drawn) |  | inconclusive [phenotype inactive, partial curve, poor fit]
COc1cc(C(=O)Nc2sc3c(c2C#N)CCCC3)c(Br)c(OC)c1OC |  | active: 13.4 µM
CCc1nnc(NC(=O)CSc2nccn2Cc2ccccc2)s1 | inactive: -26.1% | 
COC(=O)c1ccc(OCC2c3cc(OC)c(OC)cc3CCN2C(=O)c2ccc(OC)cc2)cc1 (stereo not drawn) | inactive: 0.226% | 
CC(C)(C)C1CCc2nc(NC(=O)c3cccc(Cl)c3)sc2C1 (stereo not drawn) | inactive: -9.31% | 
CCCCSCCCNC(=O)C1CCN(Cc2nc(-c3ccc(CC)cc3)oc2C)CC1 |  | inconclusive [phenotype inactive, single point]
CCOc1ccccc1NC(=O)CSc1nc2ccccc2nc1Cc1ccc(C)cc1 |  | inconclusive [phenotype inactive, single point]
CCCOc1cccc(C(=O)Nc2cc(-c3nc4ccccc4[nH]3)ccc2C)c1 |  | inconclusive [phenotype inactive, single point]
COc1ccc(C)cc1NC(=O)C(NS(=O)(=O)c1cccs1)c1ccccc1 (stereo not drawn) |  | inconclusive [phenotype inactive, single point]
COc1ccc(C(=O)CSc2nc3cc(C(=O)NC4CCCC4)ccc3c(=O)n2CC2CCCO2)cc1 (stereo not drawn) |  | inconclusive [phenotype inactive, single point]
CC(=O)N1CCCC1c1nc2ccccc2n1Cc1c(F)cccc1Cl (stereo not drawn) | inactive: -1.46% | 
CC(=O)Nc1ccc(NC(=O)CCc2c(C)nc3c(c(C)nn3-c3ccc(C)cc3)c2C)cc1 |  | inconclusive [phenotype inactive, single point]
Cc1ccc(C)c(N2CCN(C(=O)Cn3cnc4sc(C)c(S(=O)(=O)N5CCN(c6ncccn6)CC5)c4c3=O)CC2)c1 |  | inconclusive [phenotype inactive, partial curve, poor fit]
Cc1ccc(-c2nc(S(=O)(=O)c3ccccc3)c(SCC(=O)NC3CCCCC3)o2)cc1 |  | inconclusive [phenotype inactive, single point]
COC(=O)c1sccc1S(=O)(=O)N1CCN(c2ccc(Cl)cc2)CC1 | inactive: 2.19% | 
O=C(CCCn1c(=O)c2sccc2n(Cc2ccc(Cl)cc2)c1=O)NCc1ccc2c(c1)OCO2 |  | inconclusive [phenotype inactive, single point]

From PubChem BioAssay AID1508649 (National Center for Advancing Translational Sciences (NCATS), 2021)
